Experiment [1] deals with A549-Dual. The experiment can be described thus: NF-kB reporter (SEAP) activity, viability-corrected, relative to vehicle (fold change vs vehicle); higher = more activation of STING-IRF / NF-kB immune response reporter. The conditions noted are these: 10 µM.
The subject of experiment [2] is A549-Dual. The experiment can be described thus: ISRE reporter (Lucia luciferase) activity, viability-corrected, relative to vehicle (fold change vs vehicle); higher = more activation of STING-IRF / NF-kB immune response reporter. The note with it: 10 µM.

Some of the results follow. Single values of this set are uncertain. Values with irradiation are relative to irradiated vehicle.
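Wherever NF-kB reporter (SEAP) activity, viability-corrected, relative to vehicle is given: viability correction based on the alamar blue assay, with concentrations leaving 10% survival or less dropped.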

As to `CCNC(=O)CCC/C=C\CC1C(O)CC(O)C1/C=C/C(O)CCc1ccccc1` (stereo unspecified) [Bimatoprost], the results for the NF-kB reporter in the experiment with A549-Dual [1] (irradiation: 8 Gy/4 fr) and in the experiment with A549-Dual [1] (irradiation: none) were 0.85 and 0.624, respectively. Also, the ISRE reporter in the experiment with A549-Dual [2] (irradiation: 8 Gy/4 fr) amounted to 0.867; with A549-Dual [2] (irradiation: none), 0.715.

Consider `O=C([O-])CCC(=O)[O-].[Na+].[Na+]` [Sodium succinate], for which the NF-kB reporter with A549-Dual [1] (irradiation: 8 Gy/4 fr) amounted to 0.976; in the experiment with A549-Dual [1] (irradiation: none), 0.926. The ISRE reporter in the experiment on A549-Dual [2] (irradiation: 8 Gy/4 fr) was found to be 1.08; with A549-Dual [2] (irradiation: none), 0.896.

In the case of `Cl.Cl.N=C(NCCCCCCNC(=N)NC(=N)Nc1ccc(Cl)cc1)NC(=N)Nc1ccc(Cl)cc1` [Chlorhexidine?2HCl], the NF-kB reporter with A549-Dual [1] (irradiation: 8 Gy/4 fr) was 2.48; in the experiment with A549-Dual [1] (irradiation: none) it was 2.62. For the same compound, the ISRE reporter in the experiment on A549-Dual [2] (irradiation: 8 Gy/4 fr) came out at 1.79; in the experiment on A549-Dual [2] (irradiation: none) it was 5.13.

In the case of `C1CNCCN1.CC12CCC3c4ccc(OS(=O)(=O)O)cc4CCC3C1CCC2=O` (stereo unspecified) [Estropipate], the NF-kB reporter with A549-Dual [1] (irradiation: 8 Gy/4 fr) worked out at 0.719; in the experiment on A549-Dual [1] (irradiation: none) it was 1.13. For the same compound, the ISRE reporter in the experiment with A549-Dual [2] (irradiation: 8 Gy/4 fr) was 0.659; with A549-Dual [2] (irradiation: none) it was 0.641.

As to `Cl.Cl.OCCOCCN1CCN(C(c2ccccc2)c2ccc(Cl)cc2)CC1` (stereo unspecified) [Hydroxyzine 2HCl], the NF-kB reporter with A549-Dual [1] (irradiation: 8 Gy/4 fr) amounted to 0.848; in the experiment with A549-Dual [1] (irradiation: none) it was 0.821. The ISRE reporter amounted to 1.07 with A549-Dual [2] (irradiation: 8 Gy/4 fr) and 1.16 in the experiment with A549-Dual [2] (irradiation: none).

Consider `COc1cc2ccc(=O)oc2c(OC)c1O` [Isofraxidin], for which the figures for the NF-kB reporter in the experiment with A549-Dual [1] (irradiation: 8 Gy/4 fr) and in the experiment with A549-Dual [1] (irradiation: none) were 0.79 and 0.958, respectively. Further, the figures for the ISRE reporter in the experiment on A549-Dual [2] (irradiation: 8 Gy/4 fr) and in the experiment on A549-Dual [2] (irradiation: none) were 0.734 and 0.623, respectively.

Regarding `C=CC1(C)CC(OC(=O)CSCCN(CC)CC)C2(C)C(C)CCC3(CCC(=O)C32)C(C)C1O.O=C(O)/C=C/C(=O)O` (stereo unspecified) [Tiamulin fumarate], the NF-kB reporter in the experiment with A549-Dual [1] (irradiation: 8 Gy/4 fr) was 0.676; in the experiment with A549-Dual [1] (irradiation: none), 1.1. The ISRE reporter in the experiment with A549-Dual [2] (irradiation: 8 Gy/4 fr) stood at 0.635; in the experiment with A549-Dual [2] (irradiation: none), 0.846.

For the compound `O=C(O)CNC(=O)c1ccccc1` [Hippuric acid], the NF-kB reporter amounted to 0.768 in the experiment on A549-Dual [1] (irradiation: 8 Gy/4 fr) and 0.826 in the experiment on A549-Dual [1] (irradiation: none). The figures for the ISRE reporter with A549-Dual [2] (irradiation: 8 Gy/4 fr) and in the experiment with A549-Dual [2] (irradiation: none) were 0.817 and 0.655, respectively.

As to `C1N2CN3CN1CN(C2)C3.O=C(O)CNC(=O)c1ccccc1` [Methenamine Hippurate], the NF-kB reporter with A549-Dual [1] (irradiation: 8 Gy/4 fr) turned out to be 1.01; with A549-Dual [1] (irradiation: none) it was 0.897. The figures for the ISRE reporter in the experiment on A549-Dual [2] (irradiation: 8 Gy/4 fr) and in the experiment with A549-Dual [2] (irradiation: none) were 0.889 and 0.668, respectively.

On to `CC1(COc2ccc(N3CCC(Oc4ccc(OC(F)(F)F)cc4)CC3)cc2)Cn2cc([N+](=O)[O-])nc2O1` (stereo unspecified) [Delamanid], for which the NF-kB reporter was found to be 0.845 in the experiment with A549-Dual [1] (irradiation: 8 Gy/4 fr) and 1 in the experiment on A549-Dual [1] (irradiation: none). In addition, the ISRE reporter in the experiment with A549-Dual [2] (irradiation: 8 Gy/4 fr) is 0.744; with A549-Dual [2] (irradiation: none), 0.912.

Take `CCC1OC(=O)C(C)C(OC2CC(C)(OC)C(O)C(C)O2)C(C)C(OC2OC(C)CC(N(C)C)C2O)C(C)(O)CC(C)C(=O)C(C)C(O)C1(C)O` (stereo unspecified) [Erythromycin]: the NF-kB reporter in the experiment on A549-Dual [1] (irradiation: 8 Gy/4 fr) is 0.933; in the experiment on A549-Dual [1] (irradiation: none), 0.973. The ISRE reporter in the experiment with A549-Dual [2] (irradiation: 8 Gy/4 fr) was 1.05; with A549-Dual [2] (irradiation: none), 0.857.

As to `O=C([O-])C(O)Cc1ccc(O)c(O)c1.[Na+]` (stereo unspecified) [Sodium Danshensu], the NF-kB reporter amounted to 1.41 in the experiment on A549-Dual [1] (irradiation: 8 Gy/4 fr) and 1.13 in the experiment on A549-Dual [1] (irradiation: none). The ISRE reporter in the experiment on A549-Dual [2] (irradiation: 8 Gy/4 fr) is 1.69; with A549-Dual [2] (irradiation: none), 1.08.

For `Cc1cc(C)cc(NC(=O)Cc2ccc(OC(C)(C)C(=O)[O-])cc2)c1.[Na+]` [Efaproxiral Sodium], the NF-kB reporter in the experiment on A549-Dual [1] (irradiation: 8 Gy/4 fr) amounted to 0.701; in the experiment on A549-Dual [1] (irradiation: none), 0.764. Moreover, the ISRE reporter in the experiment on A549-Dual [2] (irradiation: 8 Gy/4 fr) was found to be 0.756; with A549-Dual [2] (irradiation: none), 0.743.

Take `Cl.N=C(N)NC(=O)c1nc(Cl)c(N)nc1N.O.O` [Amiloride HCl dihydrate]: the NF-kB reporter turned out to be 0.815 in the experiment on A549-Dual [1] (irradiation: 8 Gy/4 fr) and 1.3 in the experiment with A549-Dual [1] (irradiation: none). Besides, the ISRE reporter in the experiment on A549-Dual [2] (irradiation: 8 Gy/4 fr) turned out to be 0.733; in the experiment with A549-Dual [2] (irradiation: none), 0.932.

Turning to `Nc1ncnc2c1ncn2C1CC(O)C(CO)O1.O` (stereo unspecified) [2'-Deoxyadenosine monohydrate], the NF-kB reporter was 0.9 in the experiment on A549-Dual [1] (irradiation: 8 Gy/4 fr) and 0.566 in the experiment with A549-Dual [1] (irradiation: none). Further, the ISRE reporter in the experiment on A549-Dual [2] (irradiation: 8 Gy/4 fr) was 0.91; with A549-Dual [2] (irradiation: none), 0.632.

Turning to `COc1ccc(CC(C)NCC(O)c2ccc(O)c(NC=O)c2)cc1.COc1ccc(CC(C)NCC(O)c2ccc(O)c(NC=O)c2)cc1.O=C(O)/C=C/C(=O)O` (stereo unspecified) [Formoterol Hemifumarate], the NF-kB reporter was determined as 0.649 in the experiment with A549-Dual [1] (irradiation: 8 Gy/4 fr) and 0.767 in the experiment with A549-Dual [1] (irradiation: none). The ISRE reporter in the experiment on A549-Dual [2] (irradiation: 8 Gy/4 fr) was found to be 0.981; in the experiment on A549-Dual [2] (irradiation: none), 0.918.

For the compound `CC(=O)N(CC(O)CN(C(C)=O)c1c(I)c(C(=O)NCC(O)CO)c(I)c(C(=O)NCC(O)CO)c1I)c1c(I)c(C(=O)NCC(O)CO)c(I)c(C(=O)NCC(O)CO)c1I` (stereo unspecified) [Iodixanol], the NF-kB reporter in the experiment with A549-Dual [1] (irradiation: 8 Gy/4 fr) was determined as 0.992; in the experiment with A549-Dual [1] (irradiation: none), 0.798. Further, the ISRE reporter stood at 0.609 in the experiment on A549-Dual [2] (irradiation: 8 Gy/4 fr) and 0.522 in the experiment on A549-Dual [2] (irradiation: none).

Take `NCC(O)c1ccc(O)c(O)c1` (single isomer, unassigned; (-)) [(-)-Norepinephrine]: the NF-kB reporter in the experiment on A549-Dual [1] (irradiation: 8 Gy/4 fr) is 1.01; with A549-Dual [1] (irradiation: none), 1.18. The ISRE reporter with A549-Dual [2] (irradiation: 8 Gy/4 fr) stood at 0.986; in the experiment with A549-Dual [2] (irradiation: none), 0.973.

As to `Cl.Cl.OCCN1CCN(CCCN2c3ccccc3Sc3ccc(C(F)(F)F)cc32)CC1` [Fluphenazine dihydrochloride], the NF-kB reporter in the experiment on A549-Dual [1] (irradiation: 8 Gy/4 fr) was 0.796; in the experiment on A549-Dual [1] (irradiation: none) it was 1.02. Also, the ISRE reporter in the experiment on A549-Dual [2] (irradiation: 8 Gy/4 fr) is 0.727; in the experiment with A549-Dual [2] (irradiation: none), 1.17.

(Values after the supplement of paper PMC9174493.)
